Laboratory results reported in the supplement of paper PMC12217912.
The other results are listed elsewhere or left out. The full chains were built here from the parent and the listed change. Inactive controls read about 0.05.

B1: TEV protease; numbered along this chain (parent)
chain: MGESLFKGPRDYNPISSSICHLTNESDGHTTSLYGIGFGPFIITNKHLFRRNNGTLVVQSLHGVFKVKDTTTLQQHLVDGRDMIIIRMPKDFPPFPQKLKFREPQREERICLVTTNFQTKSMSSMVSDTSCTFPSGDGIFWKHWIQTKDGQCGSPLVSTRDGFIVGIHSASNFTNTNNYFTSVPKNFMELLTNQEAQQWVSGWRLNADSVLWGGHKVFMVKPEEPFQPVKEATQL

Variants of: B1
Test: raw area under fraction-flipped curve 0-4 h after induction (AUC4h, not background-subtracted), DNA-recorder readout of cleavage of the substrate (dimensionless); higher = more cleavage of the substrate by the protease variant
Conditions: temperature: 34 °C; time window: 0-4 h after rhamnose induction
Protocol: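 In vivo DNA recorder in E. coli TOP10(DE3) ΔrhaA at 34 °C. Each TEVp single-site mutant (parent TEVp 0) is paired with a single-site variant of the 7-mer TEVs (canonical ENLYFQ|S). The substrate sits between flexible linkers in a Bxb1-sfGFP-TEVs-SsrA fusion, so cleavage stabilises Bxb1 and speeds flipping of a recombination array, read by NGS. The value is the raw area under the fraction-flipped curve over 0-4 h after rhamnose induction (AUC4h), with ≥20 reads per time point. It is not background-subtracted; inactive controls average about 0.047.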
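Also: Bxb1 expression induced with 0.2% (w/v) L-rhamnose at OD600 near 0.5, cultures sampled hourly, flipped fraction per protease–substrate barcode pair counted by paired-end Illumina sequencing.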

Variant: E224Q
- area with substrate ENLYAQS: 0.073
- area with substrate ENLYCQS: 0.0803
- area with substrate ENLYDQS: 0.0576
- area with substrate ENLYEQS: 0.0661
- area with substrate ENLYGQS: 0.062
- area with substrate ENLYHQS: 0.0781
- area with substrate ENLYIQS: 0.129
- area with substrate ENLYKQS: 0.0573
- area with substrate ENLYLQS: 0.106
- area with substrate ENLYMQS: 0.0914
- area with substrate ENLYNQS: 0.0771
- area with substrate ENLYPQS: 0.0851
- area with substrate ENLYQQS: 0.0625
- area with substrate ENLYVQS: 0.0937
- area with substrate ENLYWQS: 0.0819
- area with substrate ENLYYQS: 0.0718

Variant: H215Q
- area with substrate ENLYAQS: 0.0481
- area with substrate ENLYDQS: 0.0534
- area with substrate ENLYEQS: 0.0751
- area with substrate ENLYGQS: 0.0683
- area with substrate ENLYHQS: 0.07
- area with substrate ENLYIQS: 0.0374
- area with substrate ENLYKQS: 0.0561
- area with substrate ENLYLQS: 0.0642
- area with substrate ENLYMQS: 0.0491
- area with substrate ENLYNQS: 0.0566
- area with substrate ENLYPQS: 0.0574
- area with substrate ENLYRQS: 0.0567
- area with substrate ENLYSQS: 0.0556
- area with substrate ENLYWQS: 0.0492
- area with substrate ENLYYQS: 0.0619

Variant: K221E
- area with substrate ENLYAQS: 0.0695
- area with substrate ENLYDQS: 0.0679
- area with substrate ENLYEQS: 0.0608
- area with substrate ENLYGQS: 0.0623
- area with substrate ENLYHQS: 0.0693
- area with substrate ENLYIQS: 0.0825
- area with substrate ENLYKQS: 0.0591
- area with substrate ENLYNQS: 0.0598
- area with substrate ENLYPQS: 0.0619
- area with substrate ENLYQQS: 0.0676
- area with substrate ENLYRQS: 0.0577
- area with substrate ENLYSQS: 0.0613
- area with substrate ENLYVQS: 0.0562
- area with substrate ENLYWQS: 0.0781
- area with substrate ENLYYQS: 0.0492

Variant: P155Q
- area with substrate ENLYAQS: 0.0522
- area with substrate ENLYCQS: 0.0432
- area with substrate ENLYDQS: 0.049
- area with substrate ENLYEQS: 0.0535
- area with substrate ENLYGQS: 0.0537
- area with substrate ENLYHQS: 0.0585
- area with substrate ENLYIQS: 0.0539
- area with substrate ENLYKQS: 0.0521
- area with substrate ENLYLQS: 0.0437
- area with substrate ENLYMQS: 0.0501
- area with substrate ENLYNQS: 0.0491
- area with substrate ENLYPQS: 0.0414
- area with substrate ENLYQQS: 0.055
- area with substrate ENLYRQS: 0.0518
- area with substrate ENLYSQS: 0.0557
- area with substrate ENLYTQS: 0.0541
- area with substrate ENLYVQS: 0.0592
- area with substrate ENLYWQS: 0.0527
- area with substrate ENLYYQS: 0.0427

Variant: I42S
- area with substrate ENLYAQS: 0.0311
- area with substrate ENLYCQS: 0.0297
- area with substrate ENLYDQS: 0.046
- area with substrate ENLYEQS: 0.0519
- area with substrate ENLYGQS: 0.0401
- area with substrate ENLYHQS: 0.0387
- area with substrate ENLYKQS: 0.0421
- area with substrate ENLYMQS: 0.0555
- area with substrate ENLYNQS: 0.0484
- area with substrate ENLYPQS: 0.0267
- area with substrate ENLYQQS: 0.0462
- area with substrate ENLYRQS: 0.0542
- area with substrate ENLYSQS: 0.0479
- area with substrate ENLYTQS: 0.057
- area with substrate ENLYVQS: 0.0492
- area with substrate ENLYWQS: 0.045
- area with substrate ENLYYQS: 0.0362

Variant: T132M
- area with substrate ENLYAQS: 0.0744
- area with substrate ENLYCQS: 0.122
- area with substrate ENLYDQS: 0.0578
- area with substrate ENLYEQS: 0.0727
- area with substrate ENLYHQS: 0.0757
- area with substrate ENLYIQS: 0.125
- area with substrate ENLYKQS: 0.0539
- area with substrate ENLYMQS: 0.0936
- area with substrate ENLYNQS: 0.0735
- area with substrate ENLYPQS: 0.0693
- area with substrate ENLYSQS: 0.0597
- area with substrate ENLYTQS: 0.084
- area with substrate ENLYVQS: 0.0888
- area with substrate ENLYYQS: 0.0641

Variant: S121Q
- area with substrate ENLYAQS: 0.0687
- area with substrate ENLYDQS: 0.0828
- area with substrate ENLYEQS: 0.0781
- area with substrate ENLYGQS: 0.0625
- area with substrate ENLYHQS: 0.0709
- area with substrate ENLYIQS: 0.132
- area with substrate ENLYKQS: 0.0387
- area with substrate ENLYLQS: 0.102
- area with substrate ENLYMQS: 0.0779
- area with substrate ENLYNQS: 0.0655
- area with substrate ENLYQQS: 0.0713
- area with substrate ENLYSQS: 0.0403
- area with substrate ENLYVQS: 0.131
- area with substrate ENLYWQS: 0.0848
- area with substrate ENLYYQS: 0.0727

Variant: P40M
- area with substrate ENLYAQS: 0.0777
- area with substrate ENLYDQS: 0.0708
- area with substrate ENLYEQS: 0.0619
- area with substrate ENLYHQS: 0.0679
- area with substrate ENLYMQS: 0.0429
- area with substrate ENLYNQS: 0.0618
- area with substrate ENLYPQS: 0.0676
- area with substrate ENLYQQS: 0.0429
- area with substrate ENLYRQS: 0.0583
- area with substrate ENLYSQS: 0.0905
- area with substrate ENLYTQS: 0.0898
- area with substrate ENLYVQS: 0.042
- area with substrate ENLYWQS: 0.0607
- area with substrate ENLYYQS: 0.0742

Variant: I36P
- area with substrate ENLYAQS: 0.0174
- area with substrate ENLYCQS: 0.0434
- area with substrate ENLYDQS: 0.0423
- area with substrate ENLYEQS: 0.0474
- area with substrate ENLYGQS: 0.0374
- area with substrate ENLYHQS: 0.0371
- area with substrate ENLYIQS: 0.0417
- area with substrate ENLYKQS: 0.0311
- area with substrate ENLYLQS: 0.0401
- area with substrate ENLYMQS: 0.0418
- area with substrate ENLYNQS: 0.0398
- area with substrate ENLYPQS: 0.0315
- area with substrate ENLYQQS: 0.046
- area with substrate ENLYSQS: 0.0334
- area with substrate ENLYTQS: 0.0207
- area with substrate ENLYVQS: 0.0476
- area with substrate ENLYWQS: 0.0428
- area with substrate ENLYYQS: 0.0433

Variant: E25C
- area with substrate ENLYAQS: 0.0845
- area with substrate ENLYCQS: 0.112
- area with substrate ENLYDQS: 0.0478
- area with substrate ENLYEQS: 0.07
- area with substrate ENLYGQS: 0.0706
- area with substrate ENLYIQS: 0.123
- area with substrate ENLYKQS: 0.0685
- area with substrate ENLYLQS: 0.11
- area with substrate ENLYMQS: 0.0923
- area with substrate ENLYNQS: 0.0776
- area with substrate ENLYPQS: 0.0844
- area with substrate ENLYQQS: 0.0674
- area with substrate ENLYRQS: 0.0544
- area with substrate ENLYSQS: 0.0637
- area with substrate ENLYTQS: 0.0765
- area with substrate ENLYVQS: 0.116
- area with substrate ENLYWQS: 0.0828
- area with substrate ENLYYQS: 0.0696

Variant: T72Q
- area with substrate ENLYAQS: 0.0726
- area with substrate ENLYDQS: 0.0611
- area with substrate ENLYGQS: 0.0595
- area with substrate ENLYIQS: 0.138
- area with substrate ENLYKQS: 0.051
- area with substrate ENLYLQS: 0.111
- area with substrate ENLYMQS: 0.0724
- area with substrate ENLYPQS: 0.0761
- area with substrate ENLYQQS: 0.06
- area with substrate ENLYTQS: 0.0901
- area with substrate ENLYWQS: 0.0838
- area with substrate ENLYYQS: 0.065
